Measured values taken from PubChem BioAssay AID686971 (National Center for Advancing Translational Sciences (NCATS), 2013).
The campaign covered roughly 360,000 compounds. About 7,500 (2.1%) were called active. This list was built around the results that the source calls inconclusive (neither active nor inactive); the mix of calls is not that of the screen. Calls follow the shape of the dose curve; as a rule, active = well fitted cell-killing curve with a large enough effect; inconclusive = small, poorly fitted or top-dose-only effect, or effect the other way, or another doubt; inactive = no such curve, though single readings can be large or run the other way. No potency is given beside an inconclusive call; the fits are too rough.

assay: qHTS for induction of synthetic lethality in tumor cells producing 2HG: qHTS for the HT-1080-IDH1KD cell line; conditions: HT-1080 IDH1 knockdown viability, ATP luminescence, 48 h; activity, negative = toxicity: at 46.1 µM (top of the series) unless noted;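 as to activity, negative = toxicity: 0% = DMSO wells and -100% = cell-free medium wells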
Method in brief: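 HT-1080-IDH1KD cells (IDH1 knocked down), 750/well in RPMI with 5% FBS, treated with compound 48 h at 37 degrees C. Viability by CellTiter-Glo luminescence, normalised to DMSO and no-cell wells; concentration-response curves classed.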
Potency is read from the fitted curve at half-maximal effect; tags tell the direction and shape of the fitted curve.

Row | SMILES | Potency | activity, negative = toxicity
1 | Cc1ccc(NCCC(=O)c2cccc([N+](=O)[O-])c2)cc1 | inconclusive [cytotoxic, single point] | 
2 | CCCCCCCC/C=C\CCCCCCCC(=O)NCCc1ccc(O)c(O)c1 | active: 23.1 µM | 
3 | Cc1cc(C(F)(F)F)c(C#N)c(SCC(=O)Nc2nc3ccccc3s2)n1 | active: 18.4 µM | 
4 | O=C(Nc1ncccc1O)c1ccc(NS(=O)(=O)c2ccc3[nH]c(=O)[nH]c3c2)cc1 | inconclusive [cytotoxic, single point] | 
5 | O=C(O)c1ccccc1NC(c1ccccc1)c1ccc2cccnc2c1O (centres undefined) | active: 8.2 µM | 
6 | COc1cccc(OCCCn2cc(/C=C3/C(=N)N4C=C(C)SC4=NC3=O)c3ccccc32)c1 | inconclusive [cytotoxic, partial curve] | 
7 | CC(=O)Nc1cc(-c2ccc(CO)cc2)cn2c(-c3cccc(C(F)(F)F)c3)cnc12 | inconclusive [cytotoxic, single point] | 
8 | COc1cc(/C=C(\C#N)c2nc3ccc(C)cc3[nH]2)c([N+](=O)[O-])cc1OC | inconclusive [cytotoxic, single point] | 
9 | O=C(Nc1ccc(NC(=O)c2ccc(Cl)cc2Cl)cc1)c1cccs1 | inconclusive [cytotoxic, single point] | 
10 | Cc1ccc(C(=O)Nc2ncc([N+](=O)[O-])s2)cc1 | active: 23.1 µM | 
11 | CCOc1ccc(CN(C(=O)c2oc3cc(C)ccc3c2C)C2CCS(=O)(=O)C2)cc1 (centres undefined) | inconclusive [cytotoxic, single point] | 
12 | Cc1ccccc1C(=O)NC1CCN(CC(=O)Nc2ccccc2)CC1 | inactive | 
13 | CCCCCOP(=O)(OCCCCC)C1(NS(=O)(=O)c2ccccc2)C=CC(=O)c2ccccc21 (centres undefined) | inconclusive [cytotoxic, single point] | 
14 | Cc1c(C(=O)N2CCCC2(C)C(=O)NCC(C)C)oc2ccccc12 (centres undefined) | inconclusive [rising, partial curve] | 
15 | COc1cccc(OCC(Cn2c(C)nc3ccccc32)OC(C)=O)c1 (centres undefined) | inconclusive [cytotoxic, single point] | 
16 | CC(C)=CCCC(C)CN1CCC(N2CCC(C(=O)N3CCCC3)CC2)CC1 (centres undefined) | inconclusive [cytotoxic, single point] | 
17 | CSc1nc(C(=O)N2CCc3c([nH]c4ccccc34)C2c2ccccn2)cs1 (centres undefined) | inconclusive [cytotoxic, single point] | 
18 | Cc1nn(Cc2c(Cl)cccc2Cl)c(C)c1C(=O)NCc1ccc(C)n1C | inactive | 
19 | CN(C)C(CNC(=O)c1coc2ccccc2c1=O)c1ccccc1 (centres undefined) | inconclusive [cytotoxic, partial curve] | 
20 | S=C(Nc1ccc(Cl)cc1)NC1CCCCC1 | inconclusive [cytotoxic, single point] | 
21 | CCCc1c(C)nn(C(=O)/C(C#N)=N/Nc2ccccc2[N+](=O)[O-])c1C | inactive | 
22 | Cc1nc(NC(=O)CN2CCC(O)(c3ccc(F)cc3)CC2)sc1C | inactive | 

Row | SMILES | Potency | activity, negative = toxicity
23 | CCOC(=O)[C@]12Cc3c(cc(OC)c(OC)c3OC)[C@H]1N(CCC(=O)OC)C(=O)c1cc(OC)ccc12 | inconclusive [cytotoxic, single point] | 
24 | COc1cc2c(cc1O)C(SC)=NC(C)(C)C2 | inconclusive [cytotoxic, single point] | 
25 | CCCCNC(=O)C[C@@H]1C[C@@]2(C(=O)OC)CC(C)(C)CC=C2N(Cc2ccccc2)C1=O | inactive | 
26 | CN(C)c1ccc(N=C/C=C2\N(C)c3ccccc3C2(C)C)cc1 | inconclusive [cytotoxic, partial curve] | 
27 | C=CCn1c(CNc2ccccc2)nnc1SCC(=O)N/N=C/c1ccc(O)cc1O | inconclusive [cytotoxic, single point] | 
28 | S=C(Nc1ccc(Cl)c(Cl)c1)NC1CCCCC1 | inconclusive [cytotoxic, single point] | 
29 | CCC/C(C#Cc1ccsc1)=C1/c2ccccc2C(=O)N1c1ccccc1 | inconclusive [cytotoxic, single point] | 
30 | COc1cc(C(C(=O)NCc2ccccc2)N(C(=O)c2snc(C(N)=O)c2N)C2CCCC2)cc(OC)c1OC (centres undefined) | inactive | 
31 | O=C(Nc1ccccc1)c1ccc(NC(=O)c2cccs2)cc1 | inconclusive [cytotoxic, single point] | 
32 | Cc1ccc(S(=O)(=O)N2CCCCC2)cc1C(=O)NCCc1ccccc1 | inactive | 
33 | Cc1ccsc1/C=N\NC(=O)c1n[nH]c2c1CCC2 | active: 7.31 µM | 
34 | CC(=O)c1ccc(Nc2nc(-c3sc(C)nc3C)cs2)cc1 | active: 2.91 µM | 
35 | COc1cccc(NC(=O)Nc2nnc(Cc3ccccc3F)s2)c1 | inconclusive [cytotoxic, partial curve] | 
36 | Clc1ccc(CNCCCSc2ncccn2)cc1Cl | inactive | 
37 | Cc1ccc(/C=C/C(=O)N2CCN(S(=O)(=O)c3c(C)c(C)cc(C)c3C)CC2)o1 | inconclusive [cytotoxic, single point] | 
38 | COC(=O)c1ccc(COC(=O)c2ccc(SC)cc2OC)cc1 | inactive | 
39 | CC(=O)C1=C(C)NC(SCC(=O)c2ccc(Cl)cc2Cl)=C(C#N)C1c1ccco1 (centres undefined) | inconclusive [cytotoxic, single point] | 
40 | CCc1ccc(Nc2n[n+](-c3ccccc3)c(-c3cccc(Cl)c3Cl)s2)cc1 |  | inconclusive: -57.6%
41 | Cc1ccc(CN2C(=O)c3ccccc3C2c2nnnn2-c2ccc3c(c2)OCCO3)cc1 (centres undefined) | inconclusive [cytotoxic, single point] | 
42 | CC(=O)c1ccc(NS(=O)(=O)c2cc(-c3cnc(C4CC4)o3)ccc2C)cc1 | inconclusive [cytotoxic, partial curve] | 
43 | COc1ccccc1C(=O)Nc1c(C(=O)N(CCN(C)C)Cc2ccco2)oc2ccccc12 | inconclusive [cytotoxic, single point] | 
44 | O=C(ONC1=NCCCCC1)c1ccc(Cl)cc1 | active: 23.1 µM | 
